# Assay results from a collection of fitness landscapes (doi:10.1126/science.1257360).
# Some of the results follow.
# B1: PhoQ; a variant is named by its letters at X, in order, P23837 (parent)
# chain: MKKLLRLFFPLSLRVRFLLATAAVVLVLSLAYGMVALIGYSVSFDKTTFRLLRGESNLFYTLAKWENNKLHVELPENIDKQSPTMTLIYDENGQLLWAQRDVPWLMKMIQPDWLKSNGFHEIEADVNDTSLLLSGDHSIQQQLQEVREDDDDAEMTHSVAVNVYPATSRMPKLTIVVVDTIPVELKSSYMVWSWFIYVLSANLLLVIPLLWVAAWWSLRPIEALAKEVRELEEHNRELLNPATTRELTSLVRNLNRLLKSERERYDKYRTTLTDLTHSLKTPLXXLQXXLRSLRSEKMSVSDAEPVMLEQISRISQQIGYYLHRASMRGGTLLSRELHPVAPLLDNLTSALNKVYQRKGVNISLDISPEISFVGEQNDFVEVMGNVLDNACKYCLEFVEISARQTDEHLYIVVEDDGPGIPLSKREVIFDRGQRVDTLRPGQGVGLAVAREITEQYEGKIVAGESMLGGARMEVIFGRQHSAPKDE
# Variants of: B1
# Assay: enrichment ratio after two sorts for PhoP signalling (ratio (wild type AVST 3.29)); higher = more functional
# Conditions: with PhoP (E. coli)
row,Variant,enrichment ratio
1,PCQT,≤ 0.25
2,VESF,≤ 0.25
3,VSTM,14.3
4,DFKY,≤ 0.25
5,DDNN,≤ 0.25
6,PRCA,≤ 0.25
7,VEHL,≤ 0.25
8,HLMN,≤ 0.25
9,PKSL,≤ 0.25
10,KCTK,≤ 0.25
11,SSTF,7.3
12,QNPR,≤ 0.25
13,VTAD,≤ 0.25
14,GGNA,≤ 0.25
15,LEWF,≤ 0.25
16,TYIR,0.362
17,AECY,9.94
18,NMKP,≤ 0.25
19,NRGL,≤ 0.25
20,VLME,≤ 0.25
21,TGEM,≤ 0.25
22,NVPK,≤ 0.25
23,FMAN,≤ 0.25
24,KAYN,≤ 0.25
25,HPMS,≤ 0.25

row,Variant,enrichment ratio
1,TCWF,0.548
2,LPYV,0.296
3,LYFL,≤ 0.25
4,MDPK,≤ 0.25
5,KMFR,≤ 0.25
6,GSKC,≤ 0.25
7,HPME,≤ 0.25
8,TRKI,≤ 0.25
9,KDYK,≤ 0.25
10,YMCP,≤ 0.25
11,QTWG,≤ 0.25
12,ARNH,≤ 0.25
13,RQTI,≤ 0.25
14,DELN,≤ 0.25
15,KPES,≤ 0.25
16,NDTI,≤ 0.25
17,RDWR,≤ 0.25
18,PTIA,≤ 0.25
19,RWCY,≤ 0.25
20,PLCS,≤ 0.25
21,YRYK,≤ 0.25
22,WMRN,≤ 0.25
23,FVPL,≤ 0.25
24,NQVE,≤ 0.25
25,EVEG,≤ 0.25

row,Variant,enrichment ratio
1,TAQG,2.47
2,LVAP,≤ 0.25
3,FWIM,≤ 0.25
4,ATKC,≤ 0.25
5,QNYD,≤ 0.25
6,PVIK,≤ 0.25
7,KDHT,≤ 0.25
8,YPWN,≤ 0.25
9,EFRV,≤ 0.25
10,ITYR,≤ 0.25
11,SVLW,1.53
12,STKC,≤ 0.25
13,KAMW,0.482
14,SETE,5.75
15,VKHN,≤ 0.25
16,RQMY,≤ 0.25
17,GITV,9.69
18,IEKC,≤ 0.25
19,NVGY,≤ 0.25
20,THDP,≤ 0.25
21,DRWF,≤ 0.25
22,SPFN,≤ 0.25
23,WPCN,≤ 0.25
24,SGNN,≤ 0.25
25,NHYL,≤ 0.25

row,Variant,enrichment ratio
1,KYYQ,≤ 0.25
2,RLME,≤ 0.25
3,QNNM,≤ 0.25
4,RHHN,≤ 0.25
5,IAIW,≤ 0.25
6,SEMM,32.5
7,NHSK,≤ 0.25
8,ILDM,≤ 0.25
9,TSSA,11.3
10,IMPY,≤ 0.25
11,YDTP,≤ 0.25
12,EYIE,≤ 0.25
13,RACN,≤ 0.25
14,TWRL,≤ 0.25
15,WALS,0.433
16,STTN,19.3
17,DEDM,≤ 0.25
18,DYKP,≤ 0.25
19,MKFM,≤ 0.25
20,YKYV,≤ 0.25
21,EMQS,≤ 0.25
22,GQVQ,≤ 0.25
